# Experimental data: the supplement of paper PMC4967469
# Compound: CCOc1cc2ncc(C#N)c(Nc3ccc(F)c(Cl)c3)c2cc1NC(=O)/C=C/CN(C)C [EKB-569]
# Assay: Viability of human cancer cell lines after 72 h of drug (GDSC screen)
# Conditions: top dose inferred
# Method: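 Human cancer cell lines in 384-well plates, medium with 10% serum, drug for 72 h over a 256-fold dose range (nine 2-fold or five 4-fold steps up to the top dose). Adherent lines were fixed and stained with the nucleic acid dye Syto60, suspension lines read with resazurin; signal relative to control wells, capped at 0 and 100%. One two-parameter sigmoid per drug and line, fitted in a mixed model over all curves with the slope shared within a line.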
Cell Line,AUC,IC50
"IHH-4 (thyroid, semi-adherent, top dose 2.5 µM)",0.97,> 2500 nM
"SNU-449 (liver, adherent, top dose 2.5 µM)",0.758,940 nM
"NCI-H520 (lung squamous cell carcinoma, adherent, top dose 2.5 µM)",0.869,2440 nM
"TE-1 (oesophagus, adherent, top dose 2.5 µM)",0.892,> 2500 nM
"Caov-4 (ovary, adherent, top dose 2.5 µM)",0.967,> 2500 nM
"OVKATE (ovary, adherent, top dose 2.5 µM)",0.947,> 2500 nM
"MZ2-MEL (melanoma, adherent, top dose 2.5 µM)",0.883,> 2500 nM
"MOLT-13 (T-cell lymphoblastic leukaemia, suspension, top dose 2.5 µM)",0.619,317 nM
"J82 (bladder, adherent, top dose 2.5 µM)",0.955,> 2500 nM
"SW626 (ovary, adherent, top dose 2.5 µM)",0.874,> 2500 nM
"KYSE-70 (oesophagus, adherent, top dose 2.5 µM)",0.94,> 2500 nM
"ES4 (Ewing sarcoma, adherent, top dose 2.5 µM)",0.59,287 nM
"CFPAC-1 (pancreas, adherent, top dose 2.5 µM)",0.95,> 2500 nM
"NCI-H1355 (lung adenocarcinoma, adherent, top dose 2.5 µM)",0.968,> 2500 nM
"NCI-H1770 (non-small cell lung carcinoma, suspension, top dose 2.5 µM)",0.992,> 2500 nM
"ALL-PO (lymphoblastic leukaemia, suspension, top dose 2.5 µM)",0.457,119 nM
"BL-41 (Burkitt lymphoma, suspension, top dose 2.5 µM)",0.656,379 nM
"U-118-MG (glioma, adherent, top dose 2.5 µM)",0.98,> 2500 nM
"HLE (liver, adherent, top dose 2.5 µM)",0.919,> 2500 nM
"NCI-H1563 (lung adenocarcinoma, adherent, top dose 2.5 µM)",0.807,1590 nM
"NCI-H1573 (lung adenocarcinoma, adherent, top dose 2.5 µM)",0.982,> 2500 nM
"NCI-H2085 (lung adenocarcinoma, adherent, top dose 2.5 µM)",0.845,2030 nM
"TYK-nu (ovary, adherent, top dose 2.5 µM)",0.985,> 2500 nM
"8-MG-BA (glioma, adherent, top dose 2.5 µM)",0.838,1540 nM
"RS4-11 (leukaemia, suspension, top dose 2.5 µM)",0.62,324 nM
"OC-314 (ovary, adherent, top dose 2.5 µM)",0.882,1990 nM
"YKG-1 (glioma, adherent, top dose 2.5 µM)",0.946,> 2500 nM

Cell Line,AUC,IC50
"no-11 (glioma, adherent, top dose 2.5 µM)",0.881,> 2500 nM
"MDA-MB-330 (breast, adherent, top dose 2.5 µM)",0.969,> 2500 nM
"IMR-5 (neuroblastoma, adherent, top dose 2.5 µM)",0.875,1810 nM
"IGR-37 (melanoma, adherent, top dose 2.5 µM)",0.989,> 2500 nM
"NCI-H292 (lung adenocarcinoma, adherent, top dose 2.5 µM)",0.876,> 2500 nM
"CTV-1 (acute myeloid leukaemia, suspension, top dose 20 µM)",0.116,109 nM
"NCI-H1435 (lung adenocarcinoma, semi-adherent, top dose 2.5 µM)",0.993,> 2500 nM
"KYSE-520 (oesophagus, adherent, top dose 2.5 µM)",0.976,> 2500 nM
"SK-MEL-2 (melanoma, adherent, top dose 2.5 µM)",0.98,> 2500 nM
"PA-TU-8902 (pancreas, adherent, top dose 2.5 µM)",0.934,> 2500 nM
"HAL-01 (lymphoblastic leukaemia, suspension, top dose 2.5 µM)",0.5,157 nM
"DG-75 (Burkitt lymphoma, suspension, top dose 2.5 µM)",0.971,> 2500 nM
"RCC10RGB (kidney, adherent, top dose 2.5 µM)",0.885,> 2500 nM
"TK (B-cell lymphoma, suspension, top dose 2.5 µM)",0.95,> 2500 nM
"BC-3 (B-cell lymphoma, suspension, top dose 2.5 µM)",0.832,1370 nM
"451Lu (melanoma, adherent, top dose 2.5 µM)",0.977,> 2500 nM
"Ca-Ski (cervix, adherent, top dose 2.5 µM)",0.719,709 nM
"OE19 (oesophagus, adherent, top dose 2.5 µM)",0.839,2040 nM
"KYSE-140 (oesophagus, adherent, top dose 2.5 µM)",0.409,85.2 nM
"IST-MEL1 (melanoma, adherent, top dose 2.5 µM)",0.88,> 2500 nM
"KE-37 (lymphoblastic leukaemia, suspension, top dose 20 µM)",0.065,< 78.1 nM
"KYSE-180 (oesophagus, adherent, top dose 2.5 µM)",0.875,2260 nM
"NCC021 (kidney, adherent, top dose 2.5 µM)",0.85,2400 nM
"MS751 (cervix, adherent, top dose 2.5 µM)",0.968,> 2500 nM
"EB-3 (Burkitt lymphoma, suspension, top dose 2.5 µM)",0.862,> 2500 nM
"RPMI-6666 (Hodgkin lymphoma, suspension, top dose 2.5 µM)",0.693,611 nM
"HCC1187 (breast, suspension, top dose 2.5 µM)",0.883,2460 nM

Cell Line,AUC,IC50
"CESS (acute myeloid leukaemia, suspension, top dose 2.5 µM)",0.655,391 nM
"TALL-1 (T-cell lymphoblastic leukaemia, suspension, top dose 2.5 µM)",0.979,> 2500 nM
"EBC-1 (lung squamous cell carcinoma, adherent, top dose 2.5 µM)",0.955,> 2500 nM
"SW948 (large intestine, adherent, top dose 20 µM)",0.764,10700 nM
"CAMA-1 (breast, adherent, top dose 2.5 µM)",0.958,> 2500 nM
"COLO-678 (large intestine, semi-adherent, top dose 2.5 µM)",0.958,> 2500 nM
"SW962 (urogenital system, adherent, top dose 2.5 µM)",0.957,> 2500 nM
"NCI-H211 (small cell lung carcinoma, adherent, top dose 2.5 µM)",0.981,> 2500 nM
"huH-1 (liver, adherent, top dose 2.5 µM)",0.977,> 2500 nM
"HOP-62 (lung adenocarcinoma, adherent, top dose 2.5 µM)",0.908,> 2500 nM
"SF539 (glioma, adherent, top dose 2.5 µM)",0.921,> 2500 nM
"JHH-7 (liver, adherent, top dose 2.5 µM)",0.972,> 2500 nM
"MDA-MB-157 (breast, adherent, top dose 2.5 µM)",0.988,> 2500 nM
"RCC-JF (kidney, adherent, top dose 2.5 µM)",0.518,175 nM
"OCI-LY-19 (B-cell lymphoma, suspension, top dose 2.5 µM)",0.569,238 nM
"HPAC (pancreas, adherent, top dose 2.5 µM)",0.69,668 nM
"LOXIMVI (melanoma, semi-adherent, top dose 2.5 µM)",0.981,> 2500 nM
"PC-3 (prostate, adherent, top dose 2.5 µM)",0.945,> 2500 nM
"L-363 (myeloma, suspension, top dose 2.5 µM)",0.952,> 2500 nM
"PL4 (pancreas, adherent, top dose 2.5 µM)",0.985,> 2500 nM
"NCI-H1781 (lung adenocarcinoma, adherent, top dose 2.5 µM)",0.449,113 nM
"COLO-680N (oesophagus, adherent, top dose 2.5 µM)",0.933,> 2500 nM
"PC-14 (lung adenocarcinoma, adherent, top dose 2.5 µM)",0.453,118 nM
"JURL-MK1 (chronic myeloid leukaemia, suspension, top dose 2.5 µM)",0.803,1230 nM
"NCI-H1648 (lung adenocarcinoma, adherent, top dose 20 µM)",0.595,2320 nM
"EKVX (lung adenocarcinoma, adherent, top dose 20 µM)",0.732,12600 nM

# IC50 is the fitted dose that halves viability relative to control wells, and lower means more sensitive; fits outside the tested doses are given as limits. The AUC spans the tested range (256-fold, ending at the top dose) of the same fit; values near 1 show little effect. Any top dose called inferred comes from the curve model; the source does not state it.
